Laboratory results from the supplement of paper PMC9446081.
Screen size: about 39,000 compounds; about 220 (0.56%) showed activity. This is one part of the list.

What follows are molecules tested on Escherichia coli K-12 BW25113 (assay: relative growth (OD600 normalised to plate interquartile mean) (fraction); higher = less growth inhibition, active = 0.2 or less). Conditions: 50 µM; LB; incubation time: overnight (16-24 h).
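Also: static incubation at 37 °C against the wild-type strain, values averaged over two biological replicates.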

Row | SMILES | relative growth
1 | C=CCSCC1Nc2cc(Cl)c(S(N)(=O)=O)cc2S(=O)(=O)N1 (stereo not drawn) | inactive: 1.08
2 | O=C(C[C@@H]1CC[C@@H]2[C@H](COC[C@H](O)CN2S(=O)(=O)c2ccccc2)O1)N1CCOCC1 | inactive: 0.989
3 | CCCN1C[C@H](C)[C@H](OC)CN(C)C(=O)c2ccc(NS(=O)(=O)c3cn(C)cn3)cc2OC[C@@H]1C | inactive: 1
4 | C[C@@H]1CCCCO[C@H](CN(C)Cc2ccccc2)[C@H](C)CN([C@H](C)CO)C(=O)c2cc(NC(=O)NC3CCCCC3)ccc2O1 | inactive: 0.988
5 | C(=N\c1nnc2nc[nH]n12)/c1ccco1 | inactive: 0.991
6 | C[C@H](CO)N1C[C@H](C)[C@@H](CN(C)S(=O)(=O)c2ccc(F)cc2)OCCCC[C@H](C)Oc2ccc(NC(=O)NC3CCCCC3)cc2C1=O | inactive: 1.01
7 | C[C@@H]1CN([C@H](C)CO)S(=O)(=O)c2ccc(C#CCN(C)C)cc2O[C@H]1CN(C)C(=O)c1ccccc1F | inactive: 0.962
8 | COC(=O)c1c2oc(c1C(=O)OC)C(=O)N[C@H](Cc1ccccc1)Cn1cc(nn1)CNC(=O)[C@@H](Cc1ccccc1)NC(=O)N[C@@H](COC(=O)NCCCCCC(=O)NO)CC2 | inactive: 0.987
9 | C[C@H]1CN([C@@H](C)CO)C(=O)c2cccc(NC(=O)C3CCCCC3)c2O[C@H]1CN(C)S(=O)(=O)c1cn(C)cn1 | inactive: 1.05
10 | C[C@@H]1CN([C@H](C)CO)C(=O)c2cccc(NC(=O)CCCCCC(=O)Nc3ccccc3N)c2O[C@H]1CN(C)Cc1ccc(C(F)(F)F)cc1 | inactive: 0.968
11 | C[C@@H](NC(=O)N(C)C[C@@H]1OCc2ccccc2-c2ccccc2C(=O)N([C@@H](C)CO)C[C@@H]1C)c1ccccc1 | inactive: 0.975
12 | CN(C)CC(=O)N[C@@H]1CC[C@@H](CCNS(=O)(=O)c2ccccc2)O[C@H]1CO | inactive: 1.02
13 | C[C@@H]1CCCCO[C@H](CN(C)C(=O)Cc2ccccc2)[C@@H](C)CN([C@H](C)CO)C(=O)c2cc(NC(=O)CCC(F)(F)F)ccc2O1 | inactive: 0.975
14 | C[C@@H]1CN([C@@H](C)CO)C(=O)c2cc(NC(=O)Cc3cn(C)c4ccccc34)ccc2O[C@@H]1CN(C)S(=O)(=O)c1cn(C)cn1 | inactive: 1
15 | C[C@@H]1CN([C@H](C)CO)C(=O)c2cc(NC(=O)Nc3ccc4c(c3)OCO4)ccc2O[C@@H](C)CCCCO[C@H]1CN(C)Cc1ccc(Cl)c(Cl)c1 | inactive: 1.01
16 | CCSC(=S)N[C@H]1CCS(=O)(=O)C1 | inactive: 0.928
17 | C[C@@H]1CN([C@H](C)CO)C(=O)c2cccc(NC(=O)c3ccc(-c4nccs4)cc3)c2O[C@@H]1CN(C)C(=O)Nc1ccccc1 | inactive: 0.999
18 | O=C(C[C@H]1C=C[C@@H](NS(=O)(=O)c2ccccc2)[C@@H](CO)O1)NCc1ccncn1 | inactive: 0.99
19 | CC(C)NC(=O)Nc1ccc2c(c1)C(=O)N([C@@H](C)CO)C[C@@H](C)[C@H](CN(C)Cc1ccc(C(=O)O)cc1)O2 | inactive: 0.988

Row | SMILES | relative growth
20 | COc1cccc(S(=O)(=O)N(C)C[C@@H]2Oc3cc(C4=CCCC4)ccc3S(=O)(=O)N([C@@H](C)CO)C[C@H]2C)c1 | inactive: 1.08
21 | COCC(=O)Nc1ccc2c(c1)C(=O)N(C)C[C@H](OC)[C@H](C)CN(C(=O)c1ccccc1F)[C@H](C)CO2 | inactive: 1.01
22 | CCOC(=O)c1c[nH]c(CC(C)=O)nc1=O | inactive: 0.999
23 | C[C@@H]1CN([C@@H](C)CO)S(=O)(=O)c2ccc(-c3cccc(C#N)c3)cc2O[C@@H]1CN(C)C(=O)c1ccncc1 | inactive: 1.01
24 | COc1cccc2c1C(=O)c1c(O)c3c(c(O)c1C2=O)CC(O)(C(=O)CO)CC3OC1CC(N)C(O)C(C)O1.Cl (stereo not drawn) | inactive: 1.02
25 | COCCOC(=O)N1C(=O)[C@@]2(c3cc(C#CCNC(N)=O)ccc31)[C@H](C(N)=O)[C@H]1C(=O)O[C@H](c3ccccc3)[C@H](c3ccccc3)N1[C@@H]2c1ccccc1OCCO | inactive: 0.947
26 | Cc1ccc(S(=O)(=O)Nc2ccc3c(c2)C(=O)N([C@H](C)CO)C[C@@H](C)[C@H](CN(C)Cc2ccc(Oc4ccccc4)cc2)O3)cc1 | inactive: 1
27 | COc1ccc(S(=O)(=O)Nc2ccc3c(c2)C(=O)N([C@@H](C)CO)C[C@H](C)[C@@H](CN(C)C(=O)C2CCCCC2)OCCCC[C@H](C)O3)cc1 | inactive: 0.976
28 | COc1ccc(COC[C@]23NC(=S)N[C@H](c4ccccc4O2)[C@H]3CO[Si](C)(C)C(C)(C)C)cc1 | inactive: 0.991
29 | Cc1nc(N=Nc2cc(S(=O)(=O)O)c3cc([N+](=O)[O-])cc(S(=O)(=O)O)c3c2)c(COP(=O)(O)O)c(C=O)c1O | inactive: 0.968
30 | Cc1noc(C)c1NC(=O)Nc1cccc2c1O[C@H](CN(C)S(=O)(=O)c1cn(C)cn1)[C@H](C)CN([C@@H](C)CO)C2=O | inactive: 1.02
31 | NC(CSCSCC(N)C(=O)O)C(=O)O (stereo not drawn) | inactive: 0.917
32 | COC(=O)[C@H](Cc1ccc(N=[N+]=[N-])cc1)N1CC2=C[C@@H](C3CC3)n3c(=O)n(C)c(=O)n3[C@H]2[C@@H]1[C@@H](O)Cc1ccccc1 | inactive: 0.989
33 | COc1cccc(S(=O)(=O)N(C)C[C@@H]2Oc3ncc(C#Cc4ccc(F)cc4)cc3C(=O)N([C@H](C)CO)C[C@@H]2C)c1 | inactive: 1.05
34 | COc1ccc(CN(C)C[C@@H]2Oc3ccc(NC(=O)Cn4cnnn4)cc3C(=O)N([C@H](C)CO)C[C@H]2C)cc1 | inactive: 0.98
35 | COc1ccc(CN(C)C[C@@H]2Oc3ccc(NS(=O)(=O)c4c(C)noc4C)cc3CC(=O)N([C@@H](C)CO)C[C@H]2C)cc1 | inactive: 0.999
36 | COCC#Cc1ccc2c(c1)O[C@H](CN(C)C(=O)C1CCCCC1)[C@@H](C)CN([C@H](C)CO)S2(=O)=O | inactive: 1.03
37 | CC(C)NC(=O)Nc1cccc2c1O[C@H](CN(C)Cc1ccc(Oc3ccccc3)cc1)[C@@H](C)CN([C@H](C)CO)C2=O | inactive: 0.985
38 | C[C@@H]1CN([C@H](C)CO)C(=O)c2cccc(NC(=O)C3CCOCC3)c2O[C@@H]1CN(C)Cc1ccc(Oc2ccccc2)cc1 | inactive: 0.988
